# Measurements reported in PubChem BioAssay AID504706 (National Center for Advancing Translational Sciences (NCATS), 2011).
# Among all 320,000 compounds or so, about 200 (0.062%) were called active. This list was built around the results that the source calls inconclusive (neither active nor inactive); the mix of calls is not that of the screen. The call rests on the fitted dose curve; in most records, active means well fitted activation curve with a large enough effect; inconclusive means small, poorly fitted or top-dose-only effect; inactive means no such curve, though single readings can be large or run the other way. No potency is given beside an inconclusive call; the fits are too rough.
# Assay: qHTS assay for re-activators of p53 using a Luc reporter; further: nearly all actives have a fitted effect of over 45% in size
# Settings: H1299 p53-A138V BP100-luciferase reporter, luminescence, 24 h; series mostly up to 92.2 µM
# Outline: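 p53-null H1299 cells stably carrying temperature-sensitive p53-A138V and a BP100-luciferase reporter were pinned with compounds (4-point, 1:5 series) and held 24 hrs at 37 deg C. Luminescence was read 10 min after detection reagent.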
# Potency means the concentration at half of the fitted maximal effect; tags describe the fitted curve by direction and shape.
row,Compound,Potency
1,O=C1CCC(C(=O)N2CCCCO2)CN1CCc1ccccc1 (centres undefined),"inconclusive [activator, partial curve, poor fit]"
2,O=C1c2ccccc2C(=O)N1CCCc1c[nH]c2ccccc12,"inconclusive [activator, partial curve, poor fit]"
3,CSCc1ccc(C(=O)OCc2nc3ccccc3s2)o1,"inconclusive [activator, partial curve, poor fit]"
4,COc1cc(C(=O)OCCN2CCOCC2)ccc1O,"inconclusive [activator, single point]"
5,O=C(COc1ccc(Cl)cc1Cl)NC(=O)N1CCCCC1,"inconclusive [activator, partial curve, poor fit]"
6,CCOC(=O)C(NC(=O)Cc1ccccc1)(Nc1cc(C)on1)C(F)(F)F (centres undefined),inactive
7,Cc1csc(NC(=O)c2ccc(Br)s2)n1,"inconclusive [activator, partial curve, poor fit]"
8,COc1ccc(CNC(=O)CCc2nnc3ccc(N4CCC5(CC4)OCCO5)nn23)cc1,inactive
9,O=C(Nc1nc2ccc(F)cc2s1)c1ccc(N2CCCC2=O)cc1,inactive
10,CC1CCN(C(=O)c2cc(-c3ccccc3O)on2)CC1,"inconclusive [activator, partial curve, poor fit]"
11,COc1ccc(/C=C2\SC(=O)N(CCNC(=O)C3CCN(S(=O)(=O)c4cccs4)CC3)C2=O)cc1,"inconclusive [activator, full curve, poor fit]"
12,C=CCn1c2ccccc2c(=O)c2cc(C#Cc3ccccn3)ccc21,"inconclusive [activator, partial curve, poor fit]"
13,Cc1ccc(N/N=C2\COC(C)(C)CC2=O)cc1,"inconclusive [activator, partial curve, poor fit]"
14,O=C(/C=C1\SC(=O)N(CC(=O)Nc2ccc(F)cc2)C1=O)Nc1ccc(Cl)cc1,"inconclusive [activator, single point]"
15,CCOc1ccccc1N1CCN(Cc2cccc(OC)c2O)CC1,inactive
16,O=C(c1cccc(F)c1)N1CCc2ccccc2C1,inactive
17,C=CCN=C1SCC(=O)N1S(=O)(=O)c1ccc(C)cc1,"inconclusive [activator, single point]"
18,Cc1cc(=O)oc2cc(NC(=O)c3cccc(S(C)(=O)=O)c3)ccc12,"inconclusive [activator, partial curve, poor fit]"
19,Cc1ccc(CNc2ccc3c(c2)ncn3C(C)C)cc1,inactive
20,Cc1noc(C)c1C(=O)OCC(=O)c1c[nH]c2ccccc12,"inconclusive [activator, single point]"
21,O=C(Nc1ccc(CN2CCOCC2)cc1)c1ccc(Br)cc1,"inconclusive [activator, single point]"
22,CCOc1cc(/C=C2\CCC/C(=C\c3cc(Cl)c(O)c(OCC)c3)C2=O)cc(Cl)c1O,inactive

row,Compound,Potency
1,O=C(C[n+]1cc(-c2ccccc2)n2c1CCC2)Nc1nc(-c2ccccc2)cs1,"inconclusive [activator, full curve, poor fit]"
2,CCN(CC(=O)Nc1cc(C)nn1-c1nc(C)cc(C)n1)Cc1ccccc1,inactive
3,O=C(CCc1ccccc1)Nc1ncc([N+](=O)[O-])s1,"inconclusive [activator, full curve, poor fit]"
4,COc1ccc(C(=O)C2CCCN(S(=O)(=O)c3ccc(C(C)=O)cc3)C2)c(C)c1 (centres undefined),inactive
5,Cc1cc(-c2cc(N)n(-c3ccccc3)n2)c(C)n1C1CCCC1,"inconclusive [activator, partial curve, poor fit]"
6,CN(C)S(=O)(=O)c1ccc(NCC2COc3ccccc3O2)c([N+](=O)[O-])c1 (centres undefined),"inconclusive [activator, full curve, poor fit]"
7,CCOC(=O)C1=CN(Cc2ccco2)S(=O)(=O)NC1c1ccc(Br)cc1F (centres undefined),inactive
8,Cc1ccc(NC2(C#N)C(=O)Nc3ccccc32)cc1C (centres undefined),"inconclusive [activator, partial curve, poor fit]"
9,O/N=C1\CCC\C1=C/c1ccco1,"inconclusive [activator, single point]"
10,COc1ccc(C(=O)c2ccc(N(C)C)cc2)c(OC)c1,inactive
11,O=C(CC(=O)Nc1ccc(Cl)cc1Cl)Nc1ccc(Cl)cc1Cl,inactive
12,O=C(CN1C(=O)NC2(CCCCC2)C1=O)NCc1cccs1,"inconclusive [activator, single point]"
13,Cc1csc(SCC(=O)c2c(N)n(C)c(=O)n(C)c2=O)n1,"inconclusive [activator, partial curve, poor fit]"
14,CNc1ccccc(-c2ccc3ccccc3n2)c1=O,"inconclusive [activator, full curve, poor fit]"
15,CN(C)S(=O)(=O)c1ccc(C(=O)OCCc2ccccc2)cc1,"inconclusive [activator, full curve, poor fit]"
16,COc1ccc(-c2csc(NC(=O)Cc3ccccc3F)n2)c(OC)c1,"inconclusive [activator, single point]"
17,Oc1cccc(-c2nc3ccccc3s2)c1,"inconclusive [activator, partial curve, poor fit]"
18,Cc1ccc(C(=O)CN2C(=O)NC3(CCCCCC3)C2=O)c(C)c1,inactive
19,Cc1c(N/N=C(\C#N)C(=O)c2ccccc2)c(=O)n(-c2ccccc2)n1C,"inconclusive [activator, full curve, poor fit]"
20,O=C(Nc1nc2c(s1)CCCC2)c1ccc2ncsc2c1,"inconclusive [activator, partial curve, poor fit]"
21,S=C(NCCc1ccccc1)NCCc1ccccc1,"inconclusive [activator, partial curve, poor fit]"
22,CC(=O)N1CCN(c2ccc(Nc3ncnc4c3oc3ccccc34)cc2)CC1,"inconclusive [activator, partial curve, poor fit]"
